Read counts are not given, so values of variants with three or more changes are uncertain.

The chains are these.
B1: LINE1-mini (parent)
chain: GGCAGAGCUCAACACAGCGUGGCAAAGUGGCUGUGGCUAGACUGCC

The variants in this data set derive from B1. Briefly: self-cleavage, relative activity (ratio to wild type); higher = more cleavage; in vitro, sequencing; the parent is a self-cleaving ribozyme.
With GGCAGAGCUCAACACACCGUGGCUAAGUGGAUGUGACUAGACUGCC [G17C A24U C31A G36A], the self-cleavage was 0.12. For the variant GGCAGAGCUCAACACAUCGUGGCACAGGGGCUGUCGCUAGACUGCC [G17U A25C U28G G35C], the self-cleavage stood at 0.07. As for GGCAGAGCUCAACACACAGUGGCAAAGUGGCAGUGGCUAGACUGCC [G17C C18A U32A], the figure is 0.05; as for GGCAGAGCUCAACACAACGGGGCAAAGUGGUUGUGGCUAGUCUGCC [G17A U20G C31U A41U], 0.11; as for GGCAGAGCUCAACACAACGUGGCAAAGGGGCUAUCGUUAGACUGCC [G17A U28G G33A G35C C37U], 0.01. Regarding GGCAGAGCUCAACACAACGUGGCAAAGCGGCUGUGGCUAGGCUGCC [G17A U28C A41G], the self-cleavage was 0.01. As for GGCAGAGCUCAACACACCAUGGCAAAGUGGCUGUGGAUAGUCUGCC [G17C G19A C37A A41U], the self-cleavage was determined as 0.02. As to GGCAGAGCUCAACACACCGUUGCAAAGUGUCAGUGGCUAGCCUGCC [G17C G21U G30U U32A A41C], the self-cleavage came out at 0.01. Regarding GGCAGAGCUCAACACAACGAGGCAAAGUGGCUGUGGCUAGACGGCA [G17A U20A U43G C46A], the self-cleavage was found to be 0.02. As for GGCAGAGCUCAACACACCGUCGCAAAGUGGCUGUGGCUAGUCUGCC [G17C G21C A41U], the figure is 0.31. As to GGCAGAGCUCAACACACCCAGGCAAAGUCGCUGUGGCUAGACUGCC [G17C G19C U20A G29C], the self-cleavage turned out to be 0.04.

As for GGCAGAGCUCAACACAACGUGGCAAAGUGGCUGUGACUGAACUGCC [G17A G36A A39G G40A], the self-cleavage is 0.01. With GGCAGAGCUCAACACACAGUGGCAAAUCGGCUGUGGCUAGACUGCA [G17C C18A G27U U28C C46A], the self-cleavage was 0.04. As to GGCAGAGCUCAACACACCGUGGCAAAGUGGCUGUGACUAGACAGCC [G17C G36A U43A], the self-cleavage amounted to 0.1.

GGCAGAGCUCAACACAUCGUGGCAGAGGGGCUGUGGCUAGACUGCC [G17U A25G U28G]: the self-cleavage came to 0.15. As for GGCAGAGCUCAACACACCGUGGCAAAGUUGCUGUGGCUAGACUGGU [G17C G29U C45G C46U], the figure is 0.01; as for GGCAGAGCUCAACACACCGUGGCAAAUUGGCUGUUGCUAGACUGCC [G17C G27U G35U], 0.09. Turning to GGCAGAGCUCAACACACCCUUGCAAAGUGGCUGUGGCUAAACUGCC [G17C G19C G21U G40A], the self-cleavage turned out to be 0.02. GGCAGAGCUCAACACACCGUGGCAAAGUGGCUGUGGCGAGACUGCA [G17C U38G C46A]: the self-cleavage was determined as 0.01.

Take GGCAGAGCUCAACACACCGUCGCAAAGUGGCUGUGGAUAGACUGCC [G17C G21C C37A]: the self-cleavage was 0.01. As for GGCAGAGCUCAACACACCGUCUCAAAGUGGCGGUGCCUAGACUGCC [G17C G21C G22U U32G G36C], the figure is 0.08; as for GGCAGAGCUCAACACACCGUGUCAAAGUGGCUGUGGCUAGACUCCC [G17C G22U G44C], 0.09; as for GGCAGAGCUCAACACAUCGUGGCCAAGUGGUUGUGGCUUGACUGCC [G17U A24C C31U A39U], 0.08. On to GGCAGAGCUCAACACACCGUGGCAAAGUGACGGUGGCUAGACUGCC [G17C G30A U32G], for which the self-cleavage stood at 0.06. Consider GGCAGAGCUCAACACAACGUGGCAAAGAGGCUGUUGCUAGACUGCC [G17A U28A G35U], for which the self-cleavage was 0.04. With GGCAGAGCUCAACACACCGCGGCAAAGUGGCUGUGGCUAGACUGCA [G17C U20C C46A], the self-cleavage is 1.4. Turning to GGCAGAGCUCAACACACCGUGGCAAAGUGGAUGUGGCUAGGCUGCC [G17C C31A A41G], the self-cleavage was determined as 0.13. Regarding GGCAGAGCUCAACACACUGUGGGAAAGUGGCUGUUGCUAGACUGCC [G17C C18U C23G G35U], the self-cleavage came to 0.01. For GGCAGAGCUCAACACACUGUGGCAAAGUGUCUGUGGCUAUAUUGCC [G17C C18U G30U G40U C42U], the self-cleavage came out at 0.02.

As to GGCAGAGCUCAACACACCGUGGCAAAGCGGCUGUGGCUAGCCUGCC [G17C U28C A41C], the self-cleavage amounted to 0.01. For GGCAGAGCUCAACACACCGAGGCAAAGUAGCUGUGGCUAGACUGCC [G17C U20A G29A], the self-cleavage was 0.08.

Consider GGCAGAGCUCAACACACCGUGGCAAAGUGGCAGUGGCUAAACUGCC [G17C U32A G40A], for which the self-cleavage stood at 0.14. Regarding GGCAGAGCUCAACACAACGGGGCAAAGUGUCUGUGGGUAGACUGCC [G17A U20G G30U C37G], the self-cleavage was 0.01. Consider GGCAGAGCUCAACACACCGAGGCAAAGGGGCUGUGGCUAGAAUGCC [G17C U20A U28G C42A], for which the self-cleavage was 0.03.

GGCAGAGCUCAACACACCGUGGCAUAGUGGCUUUGGCUAGACUGCC [G17C A25U G33U]: the self-cleavage worked out at 0.21.

On to GGCAGAGCUCAACACACCGUGGCAAUGUGGCUGUGGCUAGCCUGCC [G17C A26U A41C], for which the self-cleavage was determined as 0.04.

On to GGCAGAGCUCAACACAACGAAGCAAAGUGGCUGUGGCUAGACAGCC [G17A U20A G21A U43A], for which the self-cleavage was found to be 0. With GGCAGAGCUCAACACACCGAGGCAAAGUGGCUGUGUCUAGACUGCC [G17C U20A G36U], the self-cleavage was 0.

As for GGCAGAGCUCAACACACCGUGGCUAGGUGUCUGUGGCUAGACUGCG [G17C A24U A26G G30U C46G], the self-cleavage is 0.03. With GGCAGAGCUCAACACACCGUGCCAAAGUGGCUGUGGGUAGACUGCC [G17C G22C C37G], the self-cleavage was found to be 0.08.

GGCAGAGCUCAACACACCGUGGCAAAGUGGAGGUGGCUAGAUUGCC [G17C C31A U32G C42U]: the self-cleavage is 0.09. As to GGCAGAGCUCAACACAUCGUGGCAUAGUGGCUGUGGCAAGACUGCC [G17U A25U U38A], the self-cleavage is 0.02.

As for GGCAGAGCUCAACACACCGUGACAAAGUGGCUGUGGCUAGACUUCC [G17C G22A G44U], the self-cleavage was found to be 0.08. For GGCAGAGCUCAACACACCGUUGCUAAGUGGCUGUGGCUAGAAUGCC [G17C G21U A24U C42A], the self-cleavage worked out at 0.21. On to GGCAGAGCUCAACACACCGCGGCAUAGUGCCUGUGGCUAGACUGCC [G17C U20C A25U G30C], for which the self-cleavage was found to be 0.22. For the variant GGCAGAGCUCAACACAACGGGGCAAUGUGGCUGUGGCUAGACUGCC [G17A U20G A26U], the self-cleavage was determined as 0.09.

Turning to GGCAGAGCUCAACACACCGUCCCAAGGUUGCUGUGGCUAGACUGCC [G17C G21C G22C A26G G29U], the self-cleavage came to 0.06. Turning to GGCAGAGCUCAACACACCGUGGCACAGUGGCUGUGGCUAGACUUCC [G17C A25C G44U], the self-cleavage amounted to 0. Take GGCAGAGCUCAACACACAGUGGCAAAGUGUCUGUGGCUAGAAUGCC [G17C C18A G30U C42A]: the self-cleavage was determined as 0.02. Turning to GGCAGAGCUCAACACAUCGUGGCAACGUGGCUGUGGCCCGACCGCC [G17U A26C U38C A39C U43C], the self-cleavage amounted to 0.

Regarding GGCAGAGCUCAACACACCGUGGUAAAUUGGCUGUGGCUAGACUGCU [G17C C23U G27U C46U], the self-cleavage turned out to be 2.6. On to GGCAGAGCUCAACACACCGUGGCAAAGUGGCUUUGGGUUGACUGCC [G17C G33U C37G A39U], for which the self-cleavage is 0.06. As for GGCAGAGCUCAACACAUCGUGGCAACGUGGAUGUGGCUAGACUCCC [G17U A26C C31A G44C], the figure is 0.38; as for GGCAGAGCUCAACACACCGUGGCAAAGUGGCUUGGGCUAAACUGAC [G17C G33U U34G G40A C45A], 0; as for GGCAGAGCUCAACACACCGUGGCAAAGUGGCUUUGUCUAGACUGCC [G17C G33U G36U], 0.02.

For the variant GGCAGAGCUCAACACACUGUGGUAAAGUGGCUGUGGCUAGACUGCC [G17C C18U C23U], the self-cleavage worked out at 0.05.

For the origin of these results see the RNAGym collection of RNA variant scans (doi:10.7554/elife.90254).
